Test results reported in the supplement of paper PMC12645437, “Orthogonal IMiD-Degron Pairs Induce Selective Protein Degradation in Cells” (ACS Chemical Biology, 2025).
Some of the results follow.
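Further: jurkat cells carrying a lentiviral library of mutant zinc finger degrons fused to EGFP plus mCherry, mCherry+ cells FACS sorted, degron abundance counted by next-generation sequencing.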

Each sequence was assayed against no compound (DMSO) (assay: log2 fold change of degron read counts, EGFP-low vs EGFP+ sorted cells; higher = lower degron-EGFP level without compound (poor expression or instability)). Conditions: compound: DMSO control; 18 h.
For FNCEQCGAYFTQKGNLLRHIKL, the “log2 fold change of degron read counts” value was -0.517. In the case of FTCDICGAYFTQKGNLLRHIKL, the “log2 fold change of degron read counts” value is reported as -1.26. FHCDVCGAWFTQKGNLLRHIKL was tested, and the “log2 fold change of degron read counts” value was 0.0534. For FQCPICGADFTQKGNLLRHIKL, the “log2 fold change of degron read counts” value was -0.879. With FDCEICGALFTQKGNLLRHIKL the “log2 fold change of degron read counts” value was -0.698. For FMCEICGRHFTQKGNLLRHIKL, the “log2 fold change of degron read counts” value was -0.936. In the case of FGCDICGAWFTQKGNLLRHIKL, the “log2 fold change of degron read counts” value is reported as -0.139. With FACSVCGHHFTQKGNLLRHIKL the “log2 fold change of degron read counts” value was -0.568. With FQCNQCGHHFTQKGNLLRHIKL the “log2 fold change of degron read counts” value was 0.1. In the case of FCCNVCGAQFTQKGNLLRHIKL, the “log2 fold change of degron read counts” value is reported as -1.26. FGCSVCGHEFTQKGNLLRHIKL was tested, and the “log2 fold change of degron read counts” value was -1.13. FRCNICGALFTQKGNLLRHIKL was tested, and the “log2 fold change of degron read counts” value was -0.286. LGCNQCGFECTQKGNLLRHIKL was tested, and the “log2 fold change of degron read counts” value was 0.652. For FWCPQCGAEFTQKGNLLRHIKL, the “log2 fold change of degron read counts” value was -0.384. FTCDICGAMFTQKGNLLRHIKL was tested, and the “log2 fold change of degron read counts” value was -0.617. For FACNVCGAMFTQKGNLLRHIKL, the “log2 fold change of degron read counts” value was -0.541. With FECEICGHGFTQKGNLLRHIKL the “log2 fold change of degron read counts” value was -1.92. For FICEVCGAHFTQKGNLLRHIKL, the “log2 fold change of degron read counts” value was -1.24. For FICDICGASFTQKGNLLRHIKL, the “log2 fold change of degron read counts” value was -1.98. In the case of FACEICGACFTQKGNLLRHIKL, the “log2 fold change of degron read counts” value is reported as -1.34. In the case of FHCNICGAFFTQKGNLLRHIKL, the “log2 fold change of degron read counts” value is reported as 0.265. In the case of FRCEICGRSFTQKGNLLRHIKL, the “log2 fold change of degron read counts” value is reported as -1.26. FQCNQCGHYFTQKGNLLRHIKL was tested, and the “log2 fold change of degron read counts” value was -0.49. With LGCNQCGFQCTQKGNLLRHIKL the “log2 fold change of degron read counts” value was 0.696. In the case of FRCNQCGREFTQKGNLLRHIKL, the “log2 fold change of degron read counts” value is reported as -2. For FHCEICGATFTQKGNLLRHIKL, the “log2 fold change of degron read counts” value was -1.85. For LICEICGFWCTQKGNLLRHIKL, the “log2 fold change of degron read counts” value was 1.21. For FKCEICGRPFTQKGNLLRHIKL, the “log2 fold change of degron read counts” value was -1.01. FSCNQCGHHFTQKGNLLRHIKL was tested, and the “log2 fold change of degron read counts” value was 0.487. For FQCDICGAAFTQKGNLLRHIKL, the “log2 fold change of degron read counts” value was -1.02. In the case of FGCEICGHAFTQKGNLLRHIKL, the “log2 fold change of degron read counts” value is reported as -0.469. For FHCEQCGAQFTQKGNLLRHIKL, the “log2 fold change of degron read counts” value was -1.73. In the case of FGCNVCGAIFTQKGNLLRHIKL, the “log2 fold change of degron read counts” value is reported as 0.899. In the case of FECPICGRGFTQKGNLLRHIKL, the “log2 fold change of degron read counts” value is reported as -0.4. In the case of FQCDICGAGFTQKGNLLRHIKL, the “log2 fold change of degron read counts” value is reported as -2.2. For FFCPQCGAEFTQKGNLLRHIKL, the “log2 fold change of degron read counts” value was -1.61. In the case of FNCDQCGAFFTQKGNLLRHIKL, the “log2 fold change of degron read counts” value is reported as -0.394. FRCEICGHYFTQKGNLLRHIKL was tested, and the “log2 fold change of degron read counts” value was -0.96. For FNCNQCGHAFTQKGNLLRHIKL, the “log2 fold change of degron read counts” value was 0.702. In the case of LRCEICGFACTQKGNLLRHIKL, the “log2 fold change of degron read counts” value is reported as 0.293. With LVCEICGFYCTQKGNLLRHIKL the “log2 fold change of degron read counts” value was 0.566. FECNQCGHAFTQKGNLLRHIKL was tested, and the “log2 fold change of degron read counts” value was -1.71. With FKCPICGACFTQKGNLLRHIKL the “log2 fold change of degron read counts” value was -0.44. FGCSVCGHYFTQKGNLLRHIKL was tested, and the “log2 fold change of degron read counts” value was 1.13. FTCNQCGATFTQKGNLLRHIKL was tested, and the “log2 fold change of degron read counts” value was -1.32. With FYCNQCGRVFTQKGNLLRHIKL the “log2 fold change of degron read counts” value was 0.655. LICNQCGFACTQKGNLLRHIKL was tested, and the “log2 fold change of degron read counts” value was 0.365. With FWCDQCGAPFTQKGNLLRHIKL the “log2 fold change of degron read counts” value was -0.384. In the case of FICNVCGACFTQKGNLLRHIKL, the “log2 fold change of degron read counts” value is reported as 0.199. With FVCEQCGAIFTQKGNLLRHIKL the “log2 fold change of degron read counts” value was -0.738.
